According to article PMC12136788:
This is one part of the list.

T1: UNK ZnF1-6 (called full-length) (human, UniProt Q9C0B0 30-357)
T1 sequence: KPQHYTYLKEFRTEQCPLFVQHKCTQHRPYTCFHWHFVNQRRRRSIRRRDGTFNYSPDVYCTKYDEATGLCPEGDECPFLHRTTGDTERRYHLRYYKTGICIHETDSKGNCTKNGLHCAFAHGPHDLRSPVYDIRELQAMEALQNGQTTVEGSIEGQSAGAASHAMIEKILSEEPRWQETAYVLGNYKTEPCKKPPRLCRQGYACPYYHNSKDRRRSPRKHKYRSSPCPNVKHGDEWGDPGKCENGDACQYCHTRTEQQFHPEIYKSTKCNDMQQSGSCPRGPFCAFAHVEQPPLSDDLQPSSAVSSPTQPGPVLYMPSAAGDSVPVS

B1: chr17:27756765:27757353:-|three_prime_utr|ENSG00000007171|control|control|control (ssRNA)
RNA: GGGAGUUCUACAGUCCGACGAUCCAAGUCUUAUUUCCUCAACGUUGCUCCCCAUCAAGCCCUUUACUUGACCUCCUAACAAGUAGCACCCUGGAUUGAUCGGAGCCUCCUCUCUCAAACUGGGGCCUCCCUGGUCCCUUGGAGCAACAGAGGAUUGAGCAUCA
B2: chr7:103374401:103374592:-|CDS|ENSG00000170615|control|control|control (ssRNA)
RNA: GGGAGUUCUACAGUCCGACGAUCCCUGCCCUAUGGGAGCUGCUGUUCCACAGCAUUCAUGAUGCAGUUUUAGGCAGCCAACUUAGAGAGGCACUUGCUGAACAGGAAGCCUCGGCUCCCCCUUCCCAGGAGGACUUGGAGCCCCAACAGAGGAUUGAGCAUCA
B3: chr1:67411267:67411372:-|3pUTR|ENSG00000142864|unk|FALSE|unique (ssRNA)
RNA: GGGAGUUCUACAGUCCGACGAUCAACUCAUUUCCAAACAUGUACCAUGUUUUAUAAACCUCUUGAUUUCCAGCAACAUACUAUAGAAAACACCUGCUACUCAAAACACAACUUCUCAGUGUCAUCCAUUGCUGUCGUGAGAGACAACAGAGGAUUGAGCAUCA
B4: chr11:22846921:22847509:-|three_prime_utr|ENSG00000255359|control|control|control (ssRNA)
RNA: GGGAGUUCUACAGUCCGACGAUCCUCCACCAUUUCGGAAAAAUAAACACAGUGCAAGUAUUUAAUAUCCAAGCUACAGGCUCUAGAAUUUUAUUAAAUGCCAUCUCUCACUACCAUAUUUUUCUUUCCUGUGGUAAACUUGAACAACAGAGGAUUGAGCAUCA
B5: ENSG00000124766:be:win_2401|3pUTR|ENSG00000124766|bound_else_gene|NA|bound_elsewhere_windowed (ssRNA)
RNA: GGGAGUUCUACAGUCCGACGAUCCAGUCAGUGGAGGGCGAGUGGUUUCGGAAAAAAAAAAAGAAAAAAAGAAAAAAAAAGAAAAAAAAAAGAUUUUUUUCUUCUCUUAAUCGGAAUCGUGAUGGUGUUGGAUUAUUUCAAUGGCAACAGAGGAUUGAGCAUCA
B6: chr1:193014253:193014354:-|3pUTR|ENSG00000116750|unk|total|mutant (ssRNA)
RNA: GGGAGUUCUACAGUCCGACGAUCUUAACCGGUAUAAGGAUUUUUCUUAUUAAUCUAAUAAAAUUCCUUAACCGGAAUUUCCACCGCUUAAGAGUGGUUUAUUUUAUCUGCAUCUUCUUUGGUGAUUGCAAAUCCCUUGUGAUACAACAGAGGAUUGAGCAUCA
B7: ENSG00000180900:stop:overlap|stop_codon|ENSG00000180900|stop_codon|NA|stop_codon (ssRNA)
RNA: GGGAGUUCUACAGUCCGACGAUCUGUGCAGCAGCCGCCGCCCCGUAAGGCCUGGGCGCCGUGGCCUGGGCCCUGUGCCCUCCUAGAGGAGCAGGCACCUCCCCCAGACUUGGGGUGGGGGCCCUGCCAGCUCCAGCACCACCCCAACAGAGGAUUGAGCAUCA
B8: chr20:63933867:63933968:+|3pUTR|ENSG00000101152|msi1|FALSE|unique (ssRNA)
RNA: GGGAGUUCUACAGUCCGACGAUCAUCAGAGUGGGCCCCUUGCCAGGUGGCUUUUCAGUUACAGAGUCCAGUGGACCAUUUUGUAGAACCAUGCAGCUCCCUGCGGAAGGUGGGGUAGGGUGGGAAAGAGGAGCAGGUCUGGAGCAACAGAGGAUUGAGCAUCA
B9: chr1:24654915:24655033:+|CDS|ENSG00000133226|unk|total|mutant (ssRNA)
RNA: GGGAGUUCUACAGUCCGACGAUCUCACGGUCACCACCAAAGAAGCCUCCCAAGAGGACAUCCAGCCCCCCUCGGAAAACUCGCCGGUUAUCUCCUUCAGCAAGUCCUCCAAGGCGAAGGCACAGGCCAUCACCUCCUGCAACUCAACAGAGGAUUGAGCAUCA
B10: chr17:69153304:69154009:-|three_prime_utr|ENSG00000154263|control|control|control (ssRNA)
RNA: GGGAGUUCUACAGUCCGACGAUCUGGGCAAAGAAGAUGCUGCUCUCAGUAUUUCACGGUACAGAGAGAAGUCUCACAAUUUGUAGCAGGAGGAAGGGGAAAAUAUGUCAUUUCUUCAUUAUAUAUUAAAAGGAAAUUAUAAACCAACAGAGGAUUGAGCAUCA
B11: ENSG00000167528:stop:overlap|stop_codon|ENSG00000167528|stop_codon|NA|stop_codon (ssRNA)
RNA: GGGAGUUCUACAGUCCGACGAUCCCCAGGACUUAGAGGAGAGGGACAUUCUGAGGGUCACAUAUACAGGUAAGAACCUAGAAUAGGCUUUCAGCCACUUCCUUCACAGUUCGGGACAUCAUCAUUCCAUGUUCGUUUAAUCCCCAACAGAGGAUUGAGCAUCA
B12: chr3:10101824:10101929:+|3pUTR|ENSG00000144554|unk|total|mutant (ssRNA)
RNA: GGGAGUUCUACAGUCCGACGAUCAAAAUCUCUGAGUCAUGAUUCUGGACUUUGGGAGCCCGUUUUGAAACUCUGAUUUAUUGCCGAACUCCGGCUUGUACCAAUUUUACAAAUAAAUUCUGUUCUAAGUUCUGCCUCAGUUGCCAACAGAGGAUUGAGCAUCA
B13: chr17:48061271:48061372:+|3pUTR|ENSG00000082641|msi1|FALSE|unique (ssRNA)
RNA: GGGAGUUCUACAGUCCGACGAUCAGUGAAAUGGGGGUGGGGGGAAGCACUGAUUCCCAGUUAGGGGGUGCCUAACUGAGCAGUAGGGAUAGAAGGUGUGAACCUGGGAGUGCUUUUAUAAAUUAUUUUCCUUGUAGAUUUUAUCAACAGAGGAUUGAGCAUCA
B14: chr1:205810550:205810651:-|5pUTR|ENSG00000133065|unk|total|mutant (ssRNA)
RNA: GGGAGUUCUACAGUCCGACGAUCUUGCGGCUUCAGUGCUUGAUGGGGCUGCCUGUUGGUGGAUCAGUUUUUGCAGUGCCUGGCCGGAGUGGAGAGCCGUGGGAAGAGGUCCUGCGGCGCCCAAGCCUGGGUUCACCCCAAGACCAACAGAGGAUUGAGCAUCA
B15: chr8:58579689:58579790:+|CDS|ENSG00000137575|msi1|FALSE|bound_elsewhere (ssRNA)
RNA: GGGAGUUCUACAGUCCGACGAUCAGCACUGGACAUGUUGGUUUUAUCUUUAAAAAUGGAAAAAUAACAUCCAUAGUGAAAGAUAGCUCUGCAGCCAGAAAUGGUCUUCUCACGGAACAUAACAUCUGUGAAAUCAAUGGACAGCAACAGAGGAUUGAGCAUCA
B16: chr1:74475294:74475810:-|CDS|ENSG00000162621|control|control|control (ssRNA)
RNA: GGGAGUUCUACAGUCCGACGAUCUUUAGAAACCUGAAAAAGAAAGACCGUGGGGUAGGCAGCACUUUAUUUUGCCAGGAUGGUAGAUUGCUGCAUUCGGAAUGUUCAGAGCCUCCUGGAAAUAUGAGAGCUUUUAAUGAAGCACAACAGAGGAUUGAGCAUCA
B17: chr7:130192614:130192715:-|CDS|ENSG00000146842|msi1|total|mutant (ssRNA)
RNA: GGGAGUUCUACAGUCCGACGAUCUACAUGACCGACCUACGAACUUUGGAUACUUUUCUCAGAAGUGAAGAGGAGAAACAGCACCGGGUUAAGCUGGGUACAUAUAUAUUUCUGUAUAUCUACUAUACAUAUUUUUGGUGUCAACAACAGAGGAUUGAGCAUCA
B18: chr3:186789481:186789582:+|3pUTR|ENSG00000156976|msi1_unk|FALSE|overlapping (ssRNA)
RNA: GGGAGUUCUACAGUCCGACGAUCUUGGGGUGGGUAUAAAAGAUGGGGUCUGUAAAAUCUUUCUUUCUUAGAAAUUUAUUUCCUAGUUCUGUAGAAAUGGUUGUAUUAGAUGUUCUCUAUCAUUUAAUAAUAUACUUGUGGACUCAACAGAGGAUUGAGCAUCA
B19: chr12:2800410:2800520:+|CDS|ENSG00000004478|unk|FALSE|unique (ssRNA)
RNA: GGGAGUUCUACAGUCCGACGAUCAAAUACAAGCAAGCUUUACUACAGUAUAAGAAGAUCGUGUCUUGGCUGGAAUAUGAGUCUAGUUUUUCCAAUGAGGAAGCACAGAAAGCACAGGCCCUUCGACUGGCCUCUCACCUCAACCAACAGAGGAUUGAGCAUCA
B20: chr3:66417149:66417250:-|CDS|ENSG00000144749|msi1|total|mutant (ssRNA)
RNA: GGGAGUUCUACAGUCCGACGAUCCAACAAGAUUCGCAGCGUGGAGGGGAGCCAGCUGAAGGCCUACCUUUCCUCCGAAGUGUCCGAUCUGAGUUUGAACAACAUCACGGAAGUGCGGAACACCUGCUUUCCACACGGACCGCCCAACAGAGGAUUGAGCAUCA
B21: chr5:97028609:97028710:+|3pUTR|ENSG00000113441|msi1|total|mutant (ssRNA)
RNA: GGGAGUUCUACAGUCCGACGAUCUUGCAAAAGCCAAGGUAAAGCCAGGAUCGCUGCCAAGUUGUUUGCACUCUUUGGAGUUCCCGUCCGCUCAGGGCCUGACUGUAUUUUUCAUCCAUCUUUUCUGAAGUGUCUUUGGGCAGUCAACAGAGGAUUGAGCAUCA
B22: chr20:25296659:25296760:+|3pUTR|ENSG00000100994|msi1|total|mutant (ssRNA)
RNA: GGGAGUUCUACAGUCCGACGAUCUGGGGGUCAGGGUGGUUUUGAGAGAGCAGGGUAAGGAAGGAAUGUGCCCGAAGUGCUCCCCGUUUCUUGUAAAGGAAGCCAGAGUUGACAGUACAAAGGGUCGUGGCCAGCCCUGCAGCUCAACAGAGGAUUGAGCAUCA

Each binder was assayed against T1, UNK ZnF1-6 (called full-length) (assay: nsRBNS (natural sequence RNA bind-n-seq); RBNS binding buffer (assumed for nsRBNS): 25 mM Tris pH 7.5, 150 mM KCl, 3 mM MgCl2, 0.01% Triton X-100, 500 ug/ml BSA, 20 U/ml SUPERase-In, 4 C; UNK is unkempt and MSI1 is Musashi-1; names of the RNAs are library labels; protein concentration not given here; high values mean tight binding).

| Binder | binding signal [enrichment R] |
| --- | --- |
| B1 | 0.605 |
| B2 | 0.733 |
| B3 | 0.583 |
| B4 | 0.713 |
| B5 | 0.947 |
| B6 | 0.372 |
| B7 | 0.699 |
| B8 | 1.29 |
| B9 | 0.653 |
| B10 | 0.799 |
| B11 | 0.514 |
| B12 | 0.533 |
| B13 | 6.4 |
| B14 | 0.798 |
| B15 | 0.376 |
| B16 | 0.68 |
| B17 | 0.543 |
| B18 | 5.04 |
| B19 | 0.654 |
| B20 | 0.568 |
| B21 | 0.508 |
| B22 | 1.27 |
